Data on 24 sequences can be found in the supplement of paper PMC11417369.

± gives the standard deviation of the averaged measurements. Some of the results follow.

The assay relates to PfAP2-LT AP2 domain (GST-tagged). Description: gcPBM binding intensity (ln(normalized median fluorescence intensity)); higher = stronger DNA binding. Summed up: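 An Agilent 4 × 180k array of primer-extended double-stranded 36-bp intergenic genomic probes, with negative controls, was incubated for 1 h with GST-tagged P. falciparum DNA-binding domains expressed in E. coli. Alexa488 anti-GST antibody detected bound protein, scanned at 488 nm. Binding intensity is the highest Masliner-normalised natural-log median intensity across replicate spots of either probe orientation.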
Regarding “ATATATATGTATTTATGTACATATTATTTTTCTTAA [XGTACX_site8169]”, the “gcPBM binding intensity (ln)” value is 8.68 ± 0.45.
Take “AAAAAAAAAAAAATCTCACACATAAAGAGATTATGA [CACACA_site4408]”: the “gcPBM binding intensity (ln)” value came to 8.43 ± 0.51.
In the case of “TTGAAAGAAAATAAAATAAAATAAAATAAAATAAAA [CACACA_negctrl_site859]”, the “gcPBM binding intensity (ln)” value was 8.47 ± 0.67.
Next, “TTTTAAAAATTAAGTGCATGTCCTTATAAAAAAAAA [TGCATGCA_site845]”: 8.21 ± 0.4; “TTCATATATTTAGGACGTACTTTTATATTACTATAT [XGTACX_site6456]”: 8.88 ± 0.32; “AATTTTTTTTTAATCATGCACACTGTTAAAAGAATA [CACACA_site1240]”: 8.49 ± 0.38.
For “AAAAAATAGAATATAAAAATAAAGGAATTAAATTAA [XGTACX_negctrl_site420]” the value was 8.46 ± 0.87; for TATATATAAATATATGTGCACTTTTTATATTTATAT, 8.82 ± 0.43.
For “ATATGGAATAATACGCGTACACACATATATATATTA [XGTACX_site307]” the value was 9.34 ± 0.3; for “TTTATATCATTACAAGTGCATATCATCATAAATTCT [GTGCAC_site9878]”, 8.63 ± 0.48.
“TCTTGATTATATAGTACTACACATTATAAAAAAATT [XGTACX_site2465]”: the “gcPBM binding intensity (ln)” value worked out at 8.53 ± 0.48.
Next, “TGTTATTATAACATTTTTTTCAAAATAGCTTTAGAA [CACACA_negctrl_site266]”: 8.01 ± 0.35.
For “AATTTATAAGAATAAAGTACTAAAGATACAACTTTA [XGTACX_site7153]” the value was 8.34 ± 0.44; for “ATAATACCCAAGCACACACACACACCGATATATATA [CACACA_site8344]”, 10.4 ± 0.2; for “ATTAAAGGAAGCAAAACATGCAACAGCAATATTGCA [TGCATGCA_site452]”, 8.71 ± 0.4.
Next, “TTCCTTTTTTTTTATTGTACAAAAATATCAAAAAGG [XGTACX_site8505]”: 8.22 ± 0.28; “ATTTTTTTTTTTTTTTTGGGGGGGTATACTTTTAAA [CACACA_negctrl_site1020]”: 10.6 ± 0.2; “TAAAAATAGGAATACGCACACGATGATTAATTTATA [CACACA_site1835]”: 8.93 ± 0.41.
For “ATAGAATAAATTTTGTCATTTATTCCTTATATATAA [GTGCAC_negctrl_site227]”, the “gcPBM binding intensity (ln)” value turned out to be 8.49 ± 0.41.
Next, “AATTATATAACAAATTGTACGAATGAAAATATTATT [XGTACX_site4237]”: 8.76 ± 0.4; “TTTATATATATTTATACACACAAACATAATACTACT [CACACA_site5161]”: 8.95 ± 0.47; “TATAATGAGGATGATAGTACGTATTAGTATAAAAAA [XGTACX_site6623]”: 8.88 ± 0.45.
Next, “TTTTTAATTTTATATACACACATAAAATATATGAAG [CACACA_site3145]”: 8.55 ± 0.4.
“ATATATTGGAGCACAACACACACAAGTATATATATG [CACACA_site8435]”: the “gcPBM binding intensity (ln)” value was 9.55 ± 0.33.
